The full data set covers some 21,000 targets. This sample favours those with the largest changes.

Results on 38 targets are retold here after the supplement of paper PMC12067093, “Discovery and optimisation of a covalent ligand for TRIM25 and its application to targeted protein ubiquitination” (Chemical Science, 2025).

Compound in the experiment: Cc1cc(ccc1-c1ccccc1)C(=O)N1CCCN(CC1)C(=O)CCl [compound 10]
Kind of experiment: probe-labelled cysteine peptide fold change vs DMSO (competition) (log2 fold change); higher = less target engagement (more negative = stronger competition). Particulars: THP-1, incubation time: 4 h.
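Note: competitive profiling in live THP-1 cells: cysteine peptides tagged with an iodoacetamide desthiobiotin (IA-DTB) probe, intensity after compound treatment relative to DMSO-treated cells.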

Sequence of UniProt P33121 (P33121 whole entry, looked up): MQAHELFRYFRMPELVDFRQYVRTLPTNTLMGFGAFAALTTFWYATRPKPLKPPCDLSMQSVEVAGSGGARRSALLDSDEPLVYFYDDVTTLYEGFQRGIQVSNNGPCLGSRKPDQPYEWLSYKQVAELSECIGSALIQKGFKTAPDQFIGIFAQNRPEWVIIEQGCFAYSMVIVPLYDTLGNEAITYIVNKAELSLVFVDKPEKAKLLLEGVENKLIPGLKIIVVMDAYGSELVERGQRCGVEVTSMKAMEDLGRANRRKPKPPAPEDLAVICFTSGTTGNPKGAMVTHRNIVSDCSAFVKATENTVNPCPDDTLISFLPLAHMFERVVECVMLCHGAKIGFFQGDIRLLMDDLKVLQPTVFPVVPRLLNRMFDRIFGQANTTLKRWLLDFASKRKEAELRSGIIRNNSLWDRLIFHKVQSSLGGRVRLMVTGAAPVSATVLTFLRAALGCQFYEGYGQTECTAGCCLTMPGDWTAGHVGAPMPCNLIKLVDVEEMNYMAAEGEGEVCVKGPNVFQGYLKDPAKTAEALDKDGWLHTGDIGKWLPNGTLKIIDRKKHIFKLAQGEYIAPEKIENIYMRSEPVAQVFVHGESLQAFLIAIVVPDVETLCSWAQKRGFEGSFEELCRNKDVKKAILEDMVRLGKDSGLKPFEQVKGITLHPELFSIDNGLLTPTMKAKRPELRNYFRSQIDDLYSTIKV
Sequence of UniProt Q9Y4X5 (Q9Y4X5 whole entry, looked up): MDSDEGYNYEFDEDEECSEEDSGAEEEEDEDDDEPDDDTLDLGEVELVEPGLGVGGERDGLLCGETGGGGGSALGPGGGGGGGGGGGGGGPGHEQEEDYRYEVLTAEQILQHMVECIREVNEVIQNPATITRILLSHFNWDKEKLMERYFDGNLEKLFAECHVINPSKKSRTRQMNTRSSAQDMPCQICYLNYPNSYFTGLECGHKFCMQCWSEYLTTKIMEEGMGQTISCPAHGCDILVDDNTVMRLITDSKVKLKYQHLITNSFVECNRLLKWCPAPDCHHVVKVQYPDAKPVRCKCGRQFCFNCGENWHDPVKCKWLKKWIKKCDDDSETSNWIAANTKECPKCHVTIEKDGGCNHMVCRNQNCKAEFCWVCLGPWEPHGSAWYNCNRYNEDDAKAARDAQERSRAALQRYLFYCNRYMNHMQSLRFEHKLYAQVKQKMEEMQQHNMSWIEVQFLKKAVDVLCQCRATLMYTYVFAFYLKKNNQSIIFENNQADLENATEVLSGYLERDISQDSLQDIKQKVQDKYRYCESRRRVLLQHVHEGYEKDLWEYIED
Sequence of UniProt Q9Y487 (Q9Y487 whole entry, looked up): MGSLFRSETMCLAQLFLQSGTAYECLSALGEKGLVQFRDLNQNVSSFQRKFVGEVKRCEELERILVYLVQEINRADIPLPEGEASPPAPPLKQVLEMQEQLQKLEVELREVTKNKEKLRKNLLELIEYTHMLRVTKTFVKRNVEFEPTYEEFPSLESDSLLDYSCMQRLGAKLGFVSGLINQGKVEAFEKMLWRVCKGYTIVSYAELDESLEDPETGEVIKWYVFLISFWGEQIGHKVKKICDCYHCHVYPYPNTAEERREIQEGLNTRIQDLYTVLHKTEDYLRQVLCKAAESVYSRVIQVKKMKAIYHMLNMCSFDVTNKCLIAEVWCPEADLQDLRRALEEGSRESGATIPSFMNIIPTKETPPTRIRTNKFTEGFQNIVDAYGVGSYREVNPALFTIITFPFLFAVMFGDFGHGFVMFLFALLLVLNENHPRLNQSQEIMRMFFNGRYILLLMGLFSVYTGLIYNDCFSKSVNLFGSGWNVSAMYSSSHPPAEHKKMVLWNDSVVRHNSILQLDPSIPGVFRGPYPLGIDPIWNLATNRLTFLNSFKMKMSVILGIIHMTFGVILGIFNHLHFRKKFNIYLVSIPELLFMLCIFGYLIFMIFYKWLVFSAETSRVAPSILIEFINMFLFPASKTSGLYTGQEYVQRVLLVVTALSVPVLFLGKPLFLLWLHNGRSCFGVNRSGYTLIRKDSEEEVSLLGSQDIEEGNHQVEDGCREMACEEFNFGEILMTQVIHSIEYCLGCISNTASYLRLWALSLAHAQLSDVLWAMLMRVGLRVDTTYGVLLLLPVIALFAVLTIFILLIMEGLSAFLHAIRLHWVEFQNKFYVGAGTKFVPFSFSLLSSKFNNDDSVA
Sequence of UniProt Q15052 (Q15052 whole entry, looked up): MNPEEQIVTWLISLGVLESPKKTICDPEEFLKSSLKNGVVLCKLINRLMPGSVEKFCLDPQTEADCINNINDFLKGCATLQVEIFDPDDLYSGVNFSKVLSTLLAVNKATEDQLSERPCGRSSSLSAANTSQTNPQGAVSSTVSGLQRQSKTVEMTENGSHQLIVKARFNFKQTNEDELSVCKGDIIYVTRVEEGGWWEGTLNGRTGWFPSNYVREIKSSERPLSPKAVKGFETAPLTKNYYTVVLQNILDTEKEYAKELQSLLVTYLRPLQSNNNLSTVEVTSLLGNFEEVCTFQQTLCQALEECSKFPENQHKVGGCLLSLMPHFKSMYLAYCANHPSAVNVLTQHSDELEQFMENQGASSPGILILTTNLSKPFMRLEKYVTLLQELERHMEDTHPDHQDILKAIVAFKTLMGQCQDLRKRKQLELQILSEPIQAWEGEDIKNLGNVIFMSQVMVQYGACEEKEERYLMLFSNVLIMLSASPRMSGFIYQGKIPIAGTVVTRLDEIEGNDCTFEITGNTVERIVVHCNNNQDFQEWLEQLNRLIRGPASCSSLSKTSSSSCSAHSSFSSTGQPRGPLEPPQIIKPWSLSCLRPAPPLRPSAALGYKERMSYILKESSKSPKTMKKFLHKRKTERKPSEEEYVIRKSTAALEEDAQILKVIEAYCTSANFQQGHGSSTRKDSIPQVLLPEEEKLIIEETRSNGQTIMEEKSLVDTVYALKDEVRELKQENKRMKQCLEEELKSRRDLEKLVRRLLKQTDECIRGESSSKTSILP
Sequence of UniProt P05067 (P05067 whole entry, looked up): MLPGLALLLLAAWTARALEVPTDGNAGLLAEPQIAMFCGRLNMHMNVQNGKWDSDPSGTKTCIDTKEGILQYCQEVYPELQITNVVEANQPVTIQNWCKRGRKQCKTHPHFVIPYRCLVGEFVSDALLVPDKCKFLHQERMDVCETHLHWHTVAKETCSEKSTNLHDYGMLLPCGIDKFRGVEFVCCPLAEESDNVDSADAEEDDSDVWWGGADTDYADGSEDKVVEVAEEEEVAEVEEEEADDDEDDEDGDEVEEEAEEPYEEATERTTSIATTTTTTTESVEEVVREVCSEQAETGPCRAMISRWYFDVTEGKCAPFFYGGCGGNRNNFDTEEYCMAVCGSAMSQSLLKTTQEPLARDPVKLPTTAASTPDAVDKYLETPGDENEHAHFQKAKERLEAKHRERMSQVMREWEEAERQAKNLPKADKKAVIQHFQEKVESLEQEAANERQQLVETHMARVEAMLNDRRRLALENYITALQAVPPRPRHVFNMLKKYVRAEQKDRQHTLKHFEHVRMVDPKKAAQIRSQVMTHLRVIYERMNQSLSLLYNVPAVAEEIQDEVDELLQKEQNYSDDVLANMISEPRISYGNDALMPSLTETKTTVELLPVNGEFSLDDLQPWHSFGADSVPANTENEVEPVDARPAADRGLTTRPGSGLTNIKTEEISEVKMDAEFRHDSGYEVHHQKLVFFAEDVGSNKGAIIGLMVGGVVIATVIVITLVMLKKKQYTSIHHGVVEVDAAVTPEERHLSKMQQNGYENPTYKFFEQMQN
Sequence of UniProt P13798 (P13798 whole entry, looked up): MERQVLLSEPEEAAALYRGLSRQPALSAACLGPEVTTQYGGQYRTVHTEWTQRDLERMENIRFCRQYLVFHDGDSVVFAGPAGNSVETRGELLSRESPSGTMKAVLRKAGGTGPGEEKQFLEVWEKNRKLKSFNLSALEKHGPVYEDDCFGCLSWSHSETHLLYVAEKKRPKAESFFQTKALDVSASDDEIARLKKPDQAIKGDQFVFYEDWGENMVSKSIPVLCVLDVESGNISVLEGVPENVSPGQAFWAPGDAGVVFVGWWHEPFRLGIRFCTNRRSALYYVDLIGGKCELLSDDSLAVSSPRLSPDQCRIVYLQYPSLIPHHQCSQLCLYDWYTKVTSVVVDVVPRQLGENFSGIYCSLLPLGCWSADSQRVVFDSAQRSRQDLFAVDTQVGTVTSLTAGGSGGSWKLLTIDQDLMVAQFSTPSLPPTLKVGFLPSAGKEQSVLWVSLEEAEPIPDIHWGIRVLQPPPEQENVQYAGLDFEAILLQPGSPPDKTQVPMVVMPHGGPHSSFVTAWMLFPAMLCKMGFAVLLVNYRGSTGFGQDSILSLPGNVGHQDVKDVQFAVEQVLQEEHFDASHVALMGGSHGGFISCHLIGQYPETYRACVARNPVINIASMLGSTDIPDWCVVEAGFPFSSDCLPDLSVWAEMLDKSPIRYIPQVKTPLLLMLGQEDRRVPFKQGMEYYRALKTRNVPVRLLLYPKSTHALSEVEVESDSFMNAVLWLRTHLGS
Sequence of UniProt Q9NVP2 (Q9NVP2 whole entry): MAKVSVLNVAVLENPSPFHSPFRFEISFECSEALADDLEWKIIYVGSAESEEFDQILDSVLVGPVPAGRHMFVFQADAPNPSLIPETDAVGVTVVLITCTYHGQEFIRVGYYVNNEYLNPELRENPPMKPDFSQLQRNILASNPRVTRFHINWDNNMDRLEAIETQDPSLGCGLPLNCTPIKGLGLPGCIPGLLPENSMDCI
Sequence of UniProt P23526 (P23526 whole entry, looked up): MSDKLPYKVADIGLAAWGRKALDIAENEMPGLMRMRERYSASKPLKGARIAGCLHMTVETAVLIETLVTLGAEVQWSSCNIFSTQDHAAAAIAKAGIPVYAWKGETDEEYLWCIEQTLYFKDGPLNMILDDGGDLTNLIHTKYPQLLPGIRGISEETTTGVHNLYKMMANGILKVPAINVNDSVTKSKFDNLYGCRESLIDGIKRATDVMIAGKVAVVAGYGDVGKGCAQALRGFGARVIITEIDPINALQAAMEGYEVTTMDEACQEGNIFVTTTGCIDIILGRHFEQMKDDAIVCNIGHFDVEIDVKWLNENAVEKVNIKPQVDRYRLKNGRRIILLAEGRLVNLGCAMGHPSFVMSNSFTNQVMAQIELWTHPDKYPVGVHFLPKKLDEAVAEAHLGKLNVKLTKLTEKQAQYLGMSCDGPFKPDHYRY

For “ATRN_O75882_1361_PIALEPCFGNK (UniProt O75882)”, the “probe-labelled cysteine peptide fold change” value runs as follows: (10 µM) -0.269; (50 µM) 0.0495.
“ASNA1_O43681_53+55_TTCSCSLAVQLSK (UniProt O43681)”: the “probe-labelled cysteine peptide fold change” value (10 µM) amounted to 0.0217 and the “probe-labelled cysteine peptide fold change” value (50 µM) was -0.23.
Regarding “AHCY_P23526_297_HFEQMKDDAIVCNIGHFDVEIDVK (UniProt P23526)”, the “probe-labelled cysteine peptide fold change” value by setting is: (10 µM) 0.148; (50 µM) -0.164.
As to “ATAD2_Q6PL18_785_NACYQPMSFRPR (UniProt Q6PL18)”, the “probe-labelled cysteine peptide fold change” value (10 µM) was -0.0288 and the “probe-labelled cysteine peptide fold change” value (50 µM) is -0.333.
In the case of “ANAPC1_Q9H1A4_225_EPLPTMFSMLHPLDEITPLVCK (UniProt Q9H1A4)”, the “probe-labelled cysteine peptide fold change” value (10 µM) was 0.139 and the “probe-labelled cysteine peptide fold change” value (50 µM) amounted to 0.0384.
For “ANKRD44_Q8N8A2_649_TPLHASVINGHTLCLR (UniProt Q8N8A2)” the same measures were 0.0181 and -0.0467.
As to “ATP6V1A_P38606_138_DIKWDFTPCK (UniProt P38606)”, the “probe-labelled cysteine peptide fold change” value (10 µM) is -1.4 and the “probe-labelled cysteine peptide fold change” value (50 µM) is -4.16.
In the same order, the values of “ATF7_P17544_409_DCPVTALQK (UniProt P17544)” are -0.183 and -0.603.
“ALOX5_P09917_265_LPVTTEMVECSLER (UniProt P09917)”: the “probe-labelled cysteine peptide fold change” value was -0.0333 (10 µM) and -0.0162 (50 µM).
Turning to “AHCTF1_Q8WYP5_521_CLVAGLLSPR (UniProt Q8WYP5)”, the “probe-labelled cysteine peptide fold change” value is -0.0709 (10 µM) and -0.461 (50 µM).
In the same order, the values of “ALDH9A1_P49189_376_DGYYMRPCVLTNCR (UniProt P49189)” are 0.0599 and -0.0147.
Regarding “ALOX5_P09917_419_EQLICECGLFDK (UniProt P09917)”, the “probe-labelled cysteine peptide fold change” value by setting is: (10 µM) -0.117; (50 µM) -0.997.
For “ACTG1_P63261_17_EEEIAALVIDNGSGMCK (UniProt P63261)” the same measures were -0.512 and -0.551.
For “AIP_O00170_121_HCCGVAQMR (UniProt O00170)”, the “probe-labelled cysteine peptide fold change” value is -0.297 (10 µM) and -1.08 (50 µM).
On to “APP_P05067_144_MDVCETHLHWHTVAK (UniProt P05067)”, for which the “probe-labelled cysteine peptide fold change” value was -0.354 (10 µM) and -0.411 (50 µM).
For the target “AP3B1_O00203_215_STLVAGSVVMAFEEVCPDRIDLIHK (UniProt O00203)”, the “probe-labelled cysteine peptide fold change” value is -0.0855 (10 µM) and -0.052 (50 µM).
Consider “ACSL4_O60488_157_NTIAIFCETR (UniProt O60488)”, for which the “probe-labelled cysteine peptide fold change” value by setting is: (10 µM) -0.31; (50 µM) 0.409.
For the target “ACSL5_Q9ULC5_121_AEYLGSCLLHK (UniProt Q9ULC5)”, the “probe-labelled cysteine peptide fold change” value by setting is: (10 µM) -0.0755; (50 µM) 0.0449.
Take “ANKRD28_O15084_387_GIHGMFPLHLAALSGFSDCCR (UniProt O15084)”: the “probe-labelled cysteine peptide fold change” value worked out at 0.142 (10 µM) and 0.103 (50 µM).
With “ATP6V1C1_P21283_376_IDCNLLEFK (UniProt P21283)”, the “probe-labelled cysteine peptide fold change” value was 0.13 (10 µM) and -0.137 (50 µM).
For the target “ACTN4_O43707_60_KTFTAWCNSHLR<|>ACTN1_P35609_41_KTFTAWCNSHLR (UniProt P35609+O43707)”, the “probe-labelled cysteine peptide fold change” value is -0.196 (10 µM) and -0.61 (50 µM).
For “ACP1_P24666_91_QITKEDFATFDYILCMDESNLR (UniProt P24666)”, the “probe-labelled cysteine peptide fold change” value runs as follows: (10 µM) -0.236; (50 µM) -1.14.
In the case of “ATP6V0A2_Q9Y487_323_CLIAEVWCPEADLQDLRR (UniProt Q9Y487)”, the “probe-labelled cysteine peptide fold change” value came out at 0.171 (10 µM) and 0.137 (50 µM).
As to “ARL14EP_Q8N8R7_119_CTQIINGSVDVDTEDRQK (UniProt Q8N8R7)”, the “probe-labelled cysteine peptide fold change” value by setting is: (10 µM) 0.179; (50 µM) -0.325.
Turning to “ARAP1_Q96P48_38_ALHLEQYTGLFEQHGLVWATECQGLSDTR (UniProt Q96P48)”, the “probe-labelled cysteine peptide fold change” value was found to be 0.171 (10 µM) and 0.379 (50 µM).
Regarding “ATP6V1B2_P21281_112_KTSCEFTGDILR (UniProt P21281)”, the “probe-labelled cysteine peptide fold change” value (10 µM) is -0.0255 and the “probe-labelled cysteine peptide fold change” value (50 µM) was -0.0641.
Turning to “APEH_P13798_312_LSPDQCR (UniProt P13798)”, the “probe-labelled cysteine peptide fold change” value (10 µM) is -0.0871 and the “probe-labelled cysteine peptide fold change” value (50 µM) is -0.181.
As for “ATOX1_O00244_12_PKHEFSVDMTCGGCAEAVSR (UniProt O00244)”, the “probe-labelled cysteine peptide fold change” value by setting is: (10 µM) 0.412; (50 µM) -0.82.
In the case of “ARIH1_Q9Y4X5_304+307_QFCFNCGENWHDPVK (UniProt Q9Y4X5)”, the “probe-labelled cysteine peptide fold change” value runs as follows: (10 µM) -0.107; (50 µM) -1.11.
In the same order, the values of “ACTR5_Q9H9F9_265_CPDYYENNVHK (UniProt Q9H9F9)” are -0.295 and -1.35.
Turning to “ANXA4_P09525_315_VLLVLCGGDD (UniProt P09525)”, the “probe-labelled cysteine peptide fold change” value runs as follows: (10 µM) 0.12; (50 µM) 0.243.
Regarding “ATF7IP2_Q5U623_220_QSDNILCSEDSGFVPVEK (UniProt Q5U623)”, the “probe-labelled cysteine peptide fold change” value is -0.257 (10 µM) and 0.0575 (50 µM).
Turning to “ARHGEF6_Q15052_514_LDEIEGNDCTFEITGNTVER (UniProt Q15052)”, the “probe-labelled cysteine peptide fold change” value was -0.0529 (10 µM) and 0.147 (50 µM).
In the same order, the values of “ASF1B_Q9NVP2_201_GLGLPGCIPGLLPENSMDCI (UniProt Q9NVP2)” are -0.169 and 0.0493.
For “ARHGAP1_Q07960_91_KIIVFSACR (UniProt Q07960)” the same measures were -0.157 and -0.255.
As to “ACSL1_P33121_625_GFEGSFEELCR (UniProt P33121)”, the “probe-labelled cysteine peptide fold change” value by setting is: (10 µM) -0.088; (50 µM) -0.0942.
For “ATIC_P31939_363_NGNYCVLQMDQSYKPDENEVR (UniProt P31939)”, the “probe-labelled cysteine peptide fold change” value was 0.165 (10 µM) and -0.0593 (50 µM).
In the same order, the values of “AP3M1_Q9Y2T2_288_ENSSCGR (UniProt Q9Y2T2)” are 0.615 and 0.181.
